The list shows a part of the results. The full chains were built here from the parent and the listed change. Values near 0.05 are background.
B1: TEV protease; numbered along this chain (parent)
chain: MGESLFKGPRDYNPISSSICHLTNESDGHTTSLYGIGFGPFIITNKHLFRRNNGTLVVQSLHGVFKVKDTTTLQQHLVDGRDMIIIRMPKDFPPFPQKLKFREPQREERICLVTTNFQTKSMSSMVSDTSCTFPSGDGIFWKHWIQTKDGQCGSPLVSTRDGFIVGIHSASNFTNTNNYFTSVPKNFMELLTNQEAQQWVSGWRLNADSVLWGGHKVFMVKPEEPFQPVKEATQL

Variants of: B1
Experiment: raw area under fraction-flipped curve 0-4 h after induction (AUC4h, not background-subtracted), DNA-recorder readout of cleavage of the substrate (dimensionless); higher = more cleavage of the substrate by the protease variant
Conditions: temperature: 34 °C; time window: 0-4 h after rhamnose induction
Procedure: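 In vivo DNA recorder in E. coli TOP10(DE3) ΔrhaA at 34 °C. Each TEVp single-site mutant (parent TEVp 0) is paired with a single-site variant of the 7-mer TEVs (canonical ENLYFQ|S). The substrate sits between flexible linkers in a Bxb1-sfGFP-TEVs-SsrA fusion, so cleavage stabilises Bxb1 and speeds flipping of a recombination array, read by NGS. The value is the raw area under the fraction-flipped curve over 0-4 h after rhamnose induction (AUC4h), with ≥20 reads per time point. It is not background-subtracted; inactive controls average about 0.047.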
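Note: Bxb1 expression induced with 0.2% (w/v) L-rhamnose at OD600 near 0.5, cultures sampled hourly, flipped fraction per protease–substrate barcode pair counted by paired-end Illumina sequencing.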

| Variant | area with substrate ENLYDQS | area with substrate ENLYEQS | area with substrate ENLYGQS | area with substrate ENLYIQS | area with substrate ENLYKQS | area with substrate ENLYLQS | area with substrate ENLYQQS | area with substrate ENLYRQS | area with substrate ENLYSQS | area with substrate ENLYTQS | area with substrate ENLYVQS | area with substrate ENLYHQS | area with substrate ENLYNQS | area with substrate ENLYPQS | area with substrate ENLYWQS | area with substrate ENLYYQS | area with substrate ENLYMQS |
| --- | --- | --- | --- | --- | --- | --- | --- | --- | --- | --- | --- | --- | --- | --- | --- | --- | --- |
| V217A | 0.0344 | 0.077 | 0.0526 | 0.0658 | 0.0601 | 0.0638 | 0.0575 | 0.0688 | 0.0672 | 0.0506 | 0.0497 |  |  |  |  |  |  |
| K221I | 0.0652 | 0.0552 |  | 0.0964 | 0.0648 |  | 0.0567 | 0.065 | 0.0991 |  | 0.0876 | 0.0606 | 0.0626 | 0.0803 | 0.0708 |  |  |
| K221Q | 0.0509 | 0.0672 |  | 0.0938 | 0.0662 |  |  | 0.0548 | 0.0655 | 0.0764 | 0.0903 | 0.0615 |  |  |  | 0.062 |  |
| P222C | 0.0437 | 0.0601 | 0.0689 | 0.0842 | 0.0611 |  | 0.0819 | 0.0664 |  |  |  | 0.0582 | 0.0615 | 0.073 | 0.0747 |  | 0.0939 |
| E224F | 0.0659 | 0.0799 | 0.0583 |  | 0.0562 |  | 0.0475 |  |  |  | 0.131 | 0.0635 | 0.0712 |  | 0.0768 |  |  |
| P225F | 0.0514 | 0.071 | 0.0532 |  | 0.0621 |  |  |  | 0.0732 |  | 0.0878 | 0.0737 | 0.0598 | 0.0696 |  | 0.0562 | 0.0728 |
| P225I | 0.0381 | 0.0592 |  |  |  |  |  | 0.0509 |  |  |  |  | 0.0332 |  | 0.0859 | 0.0494 |  |
| Q227I | 0.0535 | 0.0591 | 0.0673 | 0.114 | 0.0335 |  |  | 0.0656 |  |  | 0.109 |  | 0.0724 | 0.0677 | 0.0817 | 0.0737 | 0.108 |
| K230M | 0.0697 | 0.0629 |  | 0.0819 | 0.0587 | 0.0704 |  | 0.0468 | 0.0917 |  | 0.113 | 0.0675 | 0.0618 | 0.0549 |  | 0.0661 | 0.0757 |
| E231T | 0.059 | 0.0624 | 0.0622 |  | 0.0632 |  | 0.0778 | 0.0664 |  |  | 0.108 | 0.0779 | 0.071 |  | 0.0846 | 0.0516 | 0.101 |

— the supplement of paper PMC12217912
